The record followed here is US11685745B2, “Substituted benzoxazole and benzofuran compounds as PDE7 inhibitors” (Dart NeuroScience, LLC, priority 2017, dated 2023).

Bounds are passed on as bounds.

The target of the test is N-terminal truncated recombinant human PDE7B enzyme (Homo sapiens (Human), UniProt Q9NP56). As to the kind of experiment: biochemical.
For orientation: IC50 means the concentration that gives 50% inhibition. Turning to `CN(Cc1ccco1)Cc1cc2cc(Cl)c3c(c2o1)C1(CCCCC1)NC(=O)N3` [Example 484, 5′-Chloro-2′-{[(furan-2-ylmethyl)(methyl)amino]methyl}-7′,8′-dihydro-6′H-spiro[cyclohexane-1,9′-furo[2,3-f]quinazoline]-7′-one], the 50% inhibitory concentration (IC50) lay within 100 to 1000 nM.

For `COC1CCN(Cc2cc3cc(Cl)c4c(c3o2)C2(CCCCC2)NC(=O)N4)CC1` [Example 485, 5′-Chloro-2′-[(4-methoxypiperidin-1-yl)methyl]-7′,8′-dihydro-6′H-spiro[cyclohexane-1,9′-furo[2,3-f]quinazoline]-7′-one], the IC50 lay within 10 to 100 nM.

Consider `CC(=O)N1CCCN(Cc2cc3cc(Cl)c4c(c3o2)C2(CCCCC2)NC(=O)N4)CC1` [Example 486, 2′-[(4-Acetyl-1,4-diazepan-1-yl)methyl]-5′-chloro-7′,8′-dihydro-6′H-spiro[cyclohexane-1,9′-furo[2,3-f]quinazoline]-7′-one], for which the IC50 lay within 10 to 100 nM.

`O=C1Nc2c(Cl)cc3cc(CN4CCN(CCO)CC4)oc3c2C2(CCCCC2)N1` [Example 487, 5′-Chloro-2′-{[4-(2-hydroxyethyl)piperazin-1-yl]methyl}-7′,8′-dihydro-6′H-spiro[cyclohexane-1,9′-furo[2,3-f]quinazoline]-7′-one]: the IC50 was 100 to 1000 nM.

For `CN(C)CC1CCN(Cc2cc3cc(Cl)c4c(c3o2)C2(CCCCC2)NC(=O)N4)CC1` [Example 488, 5′-Chloro-2′-({4-[(dimethylamino)methyl]piperidin-1-yl}methyl)-7′,8′-dihydro-6′H-spiro[cyclohexane-1,9′-furo[2,3-f]quinazoline]-7′-one], the half-inhibitory concentration (IC50) was greater than 1000 nM.

With `CC(C)N(Cc1cc2cc(Cl)c3c(c2o1)C1(CCCCC1)NC(=O)N3)CC1CCC(=O)N1` (stereo not drawn) [Example 490, 5′-Chloro-2′-({[(5-oxopyrrolidin-2-yl)methyl](propan-2-yl)amino}methyl)-7′,8′-dihydro-6′H-spiro[cyclohexane-1,9′-furo[2,3-f]quinazoline]-7′-one], the IC50 was 100 to 1000 nM.

With `O=C1Nc2c(Cl)cc3cc(CN4CCn5ccnc5C4)oc3c2C2(CCCCC2)N1` [Example 491, 5′-Chloro-2′-{5H,6H,7H,8H-imidazo[1,2-a]pyrazin-7-ylmethyl}-7′,8′-dihydro-6′H-spiro[cyclohexane-1,9′-furo[2,3-f]quinazoline]-7′-one], the 50% inhibitory concentration (IC50) fell in the range of 10 to 100 nM.

`CNC(=O)C1CCN(Cc2cc3cc(Cl)c4c(c3o2)C2(CCCCC2)NC(=O)N4)CC1` [Example 493, 1-{5′-Chloro-7′-oxo-7′,8′-dihydro-6′H-spiro[cyclohexane-1,9′-furo[2,3-f]quinazoline]-2′-ylmethyl}-N-methylpiperidine-4-carboxamide]: the IC50 was in the range of 100 to 1000 nM.

Turning to `CN(CCCO)Cc1cc2cc(Cl)c3c(c2o1)C1(CCCCC1)NC(=O)N3` [Example 494, 5′-Chloro-2′-{[(3-hydroxypropyl)(methyl)amino]methyl}-7′,8′-dihydro-6′H-spiro[cyclohexane-1,9′-furo[2,3-f]quinazoline]-7′-one], the IC50 lay within 100 to 1000 nM.

Consider `O=C1Nc2c(Cl)cc3cc(CN4CCC(O)(c5ccccc5)CC4)oc3c2C2(CCCCC2)N1` [Example 495, 5′-Chloro-2′-[(4-hydroxy-4-phenylpiperidin-1-yl)methyl]-7′,8′-dihydro-6′H-spiro[cyclohexane-1,9′-furo[2,3-f]quinazoline]-7′-one], for which the IC50 lay within 100 to 1000 nM.

For `CNC(=O)CCN(C)Cc1cc2cc(Cl)c3c(c2o1)C1(CCCCC1)NC(=O)N3` [Example 497, 3-({5′-Chloro-7′-oxo-7′,8′-dihydro-6′H-spiro[cyclohexane-1,9′-furo[2,3-f]quinazoline]-2′-ylmethyl}(methyl)amino)-N-methylpropanamide], the IC50 lay within 10 to 100 nM.

For the compound `O=C1Nc2c(Cl)cc3cc(CN4C[C@@H]5[C@@H](CO)[C@@H]5C4)oc3c2C2(CCCCC2)N1` [Example 498, 5′-Chloro-2′-{[(1R,5S,6S)-6-(hydroxymethyl)-3-azabicyclo[3.1.0]hexan-3-yl]methyl}-7′,8′-dihydro-6′H-spiro[cyclohexane-1,9′-furo[2,3-f]quinazoline]-7′-one], the 50% inhibitory concentration (IC50) was in the range of 100 to 1000 nM.

On to `CCN(CCO)Cc1cc2cc(Cl)c3c(c2o1)C1(CCCCC1)NC(=O)N3` [Example 499, 5′-Chloro-2′-{[ethyl(2-hydroxyethyl)amino]methyl}-7′,8′-dihydro-6′H-spiro[cyclohexane-1,9′-furo[2,3-f]quinazoline]-7′-one], for which the IC50 is 100 to 1000 nM.

Take `CN(CCO)Cc1cc2cc(Cl)c3c(c2o1)C1(CCCCC1)NC(=O)N3` [Example 500, 5′-Chloro-2′-{[(2-hydroxyethyl)(methyl)amino]methyl}-7′,8′-dihydro-6′H-spiro[cyclohexane-1,9′-furo[2,3-f]quinazoline]-7′-one]: the 50% inhibitory concentration (IC50) was in the range of 100 to 1000 nM.

Consider `O=C1Nc2c(Cl)cc3cc(CN4CCCC(O)C4)oc3c2C2(CCCCC2)N1` (stereo not drawn) [Example 501, 5′-Chloro-2′-{(3-hydroxypiperidin-1-yl)methyl}-7′,8′-dihydro-6′H-spiro[cyclohexane-1,9′-furo[2,3-f]quinazoline]-7′-one], for which the IC50 lay in the range of 100 to 1000 nM.

For `O=C1Nc2c(Cl)cc3cc(CN4CCC(CCO)CC4)oc3c2C2(CCCCC2)N1` [Example 502, 5′-Chloro-2′-{[4-(2-hydroxyethyl)piperidin-1-yl]methyl}-7′,8′-dihydro-6′H-spiro[cyclohexane-1,9′-furo[2,3-f]quinazoline]-7′-one], the IC50 is 100 to 1000 nM.

As to `C[C@@H]1CN(Cc2cc3cc(Cl)c4c(c3o2)C2(CCCCC2)NC(=O)N4)C[C@H](C)O1` [Example 503, 5′-Chloro-2′-{[(2R,6S)-2,6-dimethylmorpholin-4-yl]methyl}-7′,8′-dihydro-6′H-spiro[cyclohexane-1,9′-furo[2,3-f]quinazoline]-7′-one], the IC50 lay within 10 to 100 nM.

Consider `CCn1cnnc1CN(C)Cc1cc2cc(Cl)c3c(c2o1)C1(CCCCC1)NC(=O)N3` [Example 504, 5′-Chloro-2′-({[(4-ethyl-4H-1,2,4-triazol-3-yl)methyl](methyl)amino}methyl)-7′,8′-dihydro-6′H-spiro[cyclohexane-1,9′-furo[2,3-f]quinazoline]-7′-one], for which the IC50 lay in the range of 10 to 100 nM.

Turning to `O=C1Nc2c(Cl)cc3cc(CN4CCCC5(COC5)C4)oc3c2C2(CCCCC2)N1` [Example 505, 5′-Chloro-2′-{2-oxa-6-azaspiro[3.5]nonan-6-ylmethyl}-7′,8′-dihydro-6′H-spiro[cyclohexane-1,9′-furo[2,3-f]quinazoline]-7′-one], the IC50 is 100 to 1000 nM.

Consider `CN(Cc1cc(C2CC2)[nH]n1)Cc1cc2cc(Cl)c3c(c2o1)C1(CCCCC1)NC(=O)N3` [Example 507, 5′-Chloro-2′-({[(5-cyclopropyl-1H-pyrazol-3-yl)methyl](methyl)amino}methyl)-7′,8′-dihydro-6′H-spiro[cyclohexane-1,9′-furo[2,3-f]quinazoline]-7′-one], for which the IC50 fell in the range of 100 to 1000 nM.

In the case of `CN(C)CCCN(C)Cc1cc2cc(Cl)c3c(c2o1)C1(CCCCC1)NC(=O)N3` [Example 508, 5′-Chloro-2′-({[3-(dimethylamino)propyl](methyl)amino}methyl)-7′,8′-dihydro-6′H-spiro[cyclohexane-1,9′-furo[2,3-f]quinazoline]-7′-one], the IC50 was in the range of 100 to 1000 nM.

As for `CN(C)C1CCN(Cc2cc3cc(Cl)c4c(c3o2)C2(CCCCC2)NC(=O)N4)C1` (stereo not drawn) [Example 509, 5′-Chloro-2′-{[3-(dimethylamino)pyrrolidin-1-yl]methyl}-7′,8′-dihydro-6′H-spiro[cyclohexane-1,9′-furo[2,3-f]quinazoline]-7′-one], the IC50 was in the range of 100 to 1000 nM.

With `N#Cc1cccnc1N1CCN(Cc2cc3cc(Cl)c4c(c3o2)C2(CCCCC2)NC(=O)N4)CC1` [Example 510, 2-(4-{5′-Chloro-7′-oxo-7′,8′-dihydro-6′H-spiro[cyclohexane-1,9′-furo[2,3-f]quinazoline]-2′-ylmethyl}piperazin-1-yl)pyridine-3-carbonitrile], the IC50 was in the range of 100 to 1000 nM.

With `O=C1Nc2c(Cl)cc3cc(CN4CCCC(Cn5ccnc5)C4)oc3c2C2(CCCCC2)N1` (stereo not drawn) [Example 511, 5′-Chloro-2′-{[3-(1H-imidazol-1-ylmethyl)piperidin-1-yl]methyl}-7′,8′-dihydro-6′H-spiro[cyclohexane-1,9′-furo[2,3-f]quinazoline]-7′-one], the IC50 is 10 to 100 nM.

Take `O=C1Nc2c(Cl)cc3cc(CN4CCC(O)(c5cccs5)CC4)oc3c2C2(CCCCC2)N1` [Example 512, 5′-Chloro-2′-{[4-hydroxy-4-(thiophen-2-yl)piperidin-1-yl]methyl}-7′,8′-dihydro-6′H-spiro[cyclohexane-1,9′-furo[2,3-f]quinazoline]-7′-one]: the IC50 was in the range of 100 to 1000 nM.

For `COCCN1CCN(Cc2cc3cc(Cl)c4c(c3o2)C2(CCCCC2)NC(=O)N4)CC1` [Example 513, 5′-Chloro-2′-{[4-(2-methoxyethyl)piperazin-1-yl]methyl}-7′,8′-dihydro-6′H-spiro[cyclohexane-1,9′-furo[2,3-f]quinazoline]-7′-one], the IC50 was in the range of 100 to 1000 nM.

For the compound `CN(Cc1cccnc1)Cc1cc2cc(Cl)c3c(c2o1)C1(CCCCC1)NC(=O)N3` [Example 514, 5′-Chloro-2′-{[methyl(pyridin-3-ylmethyl)amino]methyl}-7′,8′-dihydro-6′H-spiro[cyclohexane-1,9′-furo[2,3-f]quinazoline]-7′-one], the IC50 fell in the range of 100 to 1000 nM.

On to `O=C1Nc2c(Cl)cc3cc(CN4CCS(=O)(=O)CC4)oc3c2C2(CCCCC2)N1` [Example 515, 4-{5′-Chloro-7′-oxo-7′,8′-dihydro-6′H-spiro[cyclohexane-1,9′-furo[2,3-f]quinazoline]-2′-ylmethyl}-thiomorpholine-1,1-dione], for which the IC50 was in the range of 100 to 1000 nM.

With `CC(C)(CCO)NCc1cc2cc(Cl)c3c(c2o1)C1(CCCCC1)NC(=O)N3` [Example 516, 5′-Chloro-2′-{[(4-hydroxy-2-methylbutan-2-yl)amino]methyl}-7′,8′-dihydro-6′H-spiro[cyclohexane-1,9′-furo[2,3-f]quinazoline]-7′-one], the half-maximal inhibitory concentration (IC50) fell in the range of 100 to 1000 nM.

Take `O=CN1CCN(Cc2cc3cc(Cl)c4c(c3o2)C2(CCCCC2)NC(=O)N4)CC1` [Example 517, 4-{5′-Chloro-7′-oxo-7′,8′-dihydro-6′H-spiro[cyclohexane-1,9′-furo[2,3-f]quinazoline]-2′-ylmethyl}piperazine-1-carbaldehyde]: the IC50 was in the range of 10 to 100 nM.
